In PubChem BioAssay (NCATS):
Values joined by “and” are separate entries in the source; they are usually repeats but may differ in a detail not shown here. Identical values can stand only once. The shares of active, inactive and inconclusive entries below differ from those in the screen. For some of these results: Potencies beside an inconclusive call are fits to weak or partial responses and may not hold up. For some of these results: A note “side channel” means that the fit belongs to a control or component signal, not to the main read-out. Active and inactive are the calls of the source. Unless noted, calls come from the whole dose curve; as a rule, active = well fitted curve in the direction sought with a large enough effect; inconclusive = small, poorly fitted or top-dose-only effect, or another doubt; inactive = no such curve, though single readings can be large; an effect the other way counts as inactive or inconclusive.

Key:
[1] = AP1 Signaling Pathway (AID 357; active = well fitted curve in either direction with a large enough effect, not every such curve was filed as active; inconclusive = small, poorly fitted or top-dose-only effect, or another doubt;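 note: ME-180 reporter cells stimulated with EGF at its EC50 level; top concentration of the series differs between compounds; % is set by controls: 0 for no effect and ±100 for the full control effect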); details: ME-180 (cervical carcinoma) AP-1-bla reporter, EGF-induced, beta-lactamase ratio, 5 h
Summary of the method: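 In this screen, ME-180 cells in Opti-MEM with 0.5% dialyzed FBS received EC50 EGF and compound titrations for 5 h. AP-1 reporter beta-lactamase was detected via CCF4 ratio, giving AC50 for positive and negative modulators.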

[2] = molecular target: Cytochrome P450 1A2 (Homo sapiens) (UniProt P05177); assay: p450-cyp1a2 (AID 410; calls by dose curve; note: potency is the fitted concentration of half-maximal effect); details: recombinant CYP1A2, luciferin-ME demethylation, luminescence; series mostly up to 57 µM
Sequence of UniProt P05177 (P05177 whole entry, looked up): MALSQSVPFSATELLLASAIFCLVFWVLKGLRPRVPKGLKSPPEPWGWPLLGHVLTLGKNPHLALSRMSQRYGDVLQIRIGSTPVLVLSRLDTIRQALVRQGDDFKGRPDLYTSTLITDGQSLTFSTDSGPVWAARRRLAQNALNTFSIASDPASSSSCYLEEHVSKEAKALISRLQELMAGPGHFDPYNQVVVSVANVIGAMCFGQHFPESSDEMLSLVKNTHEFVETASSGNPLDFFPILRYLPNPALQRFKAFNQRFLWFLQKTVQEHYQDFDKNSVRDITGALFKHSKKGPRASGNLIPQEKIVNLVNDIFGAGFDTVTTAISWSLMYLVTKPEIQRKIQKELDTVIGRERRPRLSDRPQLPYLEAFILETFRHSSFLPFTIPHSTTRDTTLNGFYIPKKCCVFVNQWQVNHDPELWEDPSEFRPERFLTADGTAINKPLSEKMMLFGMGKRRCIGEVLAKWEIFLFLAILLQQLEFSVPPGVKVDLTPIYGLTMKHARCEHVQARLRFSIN
Summary of the method: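 Read-out is luminescence from luciferin produced by CYP1A2 demethylation of Luciferin-ME (100uM, at Km). Detection reagent stopped the 60 min NADPH-dependent reaction; signals were normalized to 57 uM furafylline.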

[3] = molecular target: 3',5'-cyclic-AMP phosphodiesterase 4B (Homo sapiens) (UniProt Q07343); assay: qHTS Assay for Inhibitors of PDE-IV (AID 607; active = well fitted activation curve with a large enough effect in the main read-out, with a control signal flat, not every such curve was filed as active; inconclusive = small, poorly fitted or top-dose-only effect, or effect the other way, or a change in a side signal; note: potency is the fitted concentration of half-maximal effect); details: HEK293 ACTOne CNG channel cells, membrane potential fluorescence; activation (PDE inhibition): at 22.9 µM (top of the series)
Sequence of UniProt Q07343 (Q07343 whole entry, looked up): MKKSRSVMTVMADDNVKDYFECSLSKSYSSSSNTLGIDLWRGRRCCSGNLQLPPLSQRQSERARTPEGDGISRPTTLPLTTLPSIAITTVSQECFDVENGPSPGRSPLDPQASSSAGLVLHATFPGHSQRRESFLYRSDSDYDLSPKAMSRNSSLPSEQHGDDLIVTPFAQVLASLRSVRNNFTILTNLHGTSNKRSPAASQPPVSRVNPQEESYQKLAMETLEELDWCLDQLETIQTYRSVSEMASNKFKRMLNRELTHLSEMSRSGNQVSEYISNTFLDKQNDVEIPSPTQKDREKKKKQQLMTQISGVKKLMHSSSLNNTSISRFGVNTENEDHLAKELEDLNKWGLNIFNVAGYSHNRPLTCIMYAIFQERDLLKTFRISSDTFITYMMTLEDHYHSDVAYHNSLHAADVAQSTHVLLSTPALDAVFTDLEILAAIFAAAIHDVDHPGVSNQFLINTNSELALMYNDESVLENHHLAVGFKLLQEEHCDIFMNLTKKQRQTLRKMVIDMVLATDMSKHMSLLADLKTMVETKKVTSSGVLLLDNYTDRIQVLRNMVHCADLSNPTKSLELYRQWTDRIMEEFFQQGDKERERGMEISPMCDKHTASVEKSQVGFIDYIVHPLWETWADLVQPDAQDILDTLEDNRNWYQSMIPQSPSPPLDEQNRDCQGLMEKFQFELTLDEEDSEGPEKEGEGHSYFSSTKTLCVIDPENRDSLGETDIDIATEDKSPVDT
Summary of the method: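 Cell-based read-out of cAMP via a modified cyclic nucleotide-gated channel and membrane potential dye (535/590 nm) in HEK293 cells expressing PDE4 endogenously. Compounds tested up to 22.9 uM final; 100 uM RO 20-1724 reference.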

[4] = Cellular Toxicity (caspase-3) H-4-II-E (AID 663); details: H-4-II-E rat hepatoma; Potency: caspase-3 activation; caspase-3 activation: at 92.2 µM (top of the series), scaled: DMSO 0%, 100 µM tamoxifen 100%;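 note: cells exposed to compound for 16 hr before readout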
Summary of the method: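 Caspase 3/7 activation measured in H-4-II-E cells in complete culture medium after 16 hr treatment at 37 °C, using luciferase-coupled substrate readout; AC50 values come from Hill-equation fits of normalized concentration-response data.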

[5] = Cellular Toxicity (caspase-3) Hek293 (AID 664); details: HEK293 caspase-3 activation, DMSO = 0%, 100 µM tamoxifen = 100%; at 92.2 µM (top of the series);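 note: cells exposed to compound for 16 h at 37 °C before readout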
Summary of the method: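 Apoptosis readout: Caspase-Glo 3/7 signal in human HEK293 cells following 16-hour compound incubation. Responses scaled between DMSO baseline and 100 uM tamoxifen.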

[6] = Cell Viability - LYMP2-015 (AID 971); details: LYMP2-015 lymphoblastoid cell viability; activity change, negative = lower viability: at 92.2 µM (top of the series);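 note: 0% = DMSO only and full effect = 92 µM tetraoctylammonium bromide; nearly all actives have a fitted effect of over 55% in size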
Summary of the method: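 AC50 values reflect Hill-model fits of ATP-based luminescence (CellTiter-Glo) from a human lymphoblastoid line, 2500 cells/well, treated 24 hr at 37 C.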

[7] = Cell Viability - LYMP2-022 (AID 987); details: LYMP2-022 lymphoblastoid cell viability; note: potency is the fitted concentration of half-maximal effect; nearly all actives have a fitted effect of over 55% in size
Summary of the method: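 In this qHTS cytotoxicity screen, compound titrations were incubated 24 hr at 37 C with human lymphoblastoid cells in complete medium. Luciferase-based ATP luminescence provided the viability signal.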

[8] = qHTS for differential inhibitors of proliferation of Plasmodium falciparum line 7G8 (AID 1815); details: Plasmodium falciparum 7G8 proliferation inhibition; series mostly up to 28.7 µM;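 note: potency is the fitted concentration of half-maximal effect; parasite growth measured after three days of incubation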
[9] = qHTS for differential inhibitors of proliferation of Plasmodium falciparum line Dd2 (AID 1882); details: Potency: Plasmodium falciparum Dd2 proliferation inhibition; series mostly up to 28.7 µM; note: potency is the fitted concentration of half-maximal effect; nearly all actives have a fitted effect of over 65% in size
Summary of the method: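 RBC culture, 0.3% parasitemia / 2.5% Hct final; cpd added by pin tool in DMSO; 72 h, 37 C, 5% CO2; lysis buffer + SYBR Green I, o/n RT dark; FI 485/535; norm. to artemisinin 0.29 uM and DMSO.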

[10] = molecular target: ATPase family AAA domain-containing protein 5 (Homo sapiens) (UniProt Q96QE3); assay: Validation screen for small molecules that inhibit ELG1-dependent DNA repair in human embryonic kidney (HEK293T) cells expressing luciferase-tagged ELG1 (AID 493107); details: HEK293T ELG1-luciferase level, luminescence, 5-fluorouridine co-treatment, 16 h; series mostly up to 46.1 µM; note: potency is the fitted concentration of half-maximal effect; nearly all actives have a fitted effect of over 70% in size
Sequence of UniProt Q96QE3 (Q96QE3 whole entry, looked up, the tested form may be a part): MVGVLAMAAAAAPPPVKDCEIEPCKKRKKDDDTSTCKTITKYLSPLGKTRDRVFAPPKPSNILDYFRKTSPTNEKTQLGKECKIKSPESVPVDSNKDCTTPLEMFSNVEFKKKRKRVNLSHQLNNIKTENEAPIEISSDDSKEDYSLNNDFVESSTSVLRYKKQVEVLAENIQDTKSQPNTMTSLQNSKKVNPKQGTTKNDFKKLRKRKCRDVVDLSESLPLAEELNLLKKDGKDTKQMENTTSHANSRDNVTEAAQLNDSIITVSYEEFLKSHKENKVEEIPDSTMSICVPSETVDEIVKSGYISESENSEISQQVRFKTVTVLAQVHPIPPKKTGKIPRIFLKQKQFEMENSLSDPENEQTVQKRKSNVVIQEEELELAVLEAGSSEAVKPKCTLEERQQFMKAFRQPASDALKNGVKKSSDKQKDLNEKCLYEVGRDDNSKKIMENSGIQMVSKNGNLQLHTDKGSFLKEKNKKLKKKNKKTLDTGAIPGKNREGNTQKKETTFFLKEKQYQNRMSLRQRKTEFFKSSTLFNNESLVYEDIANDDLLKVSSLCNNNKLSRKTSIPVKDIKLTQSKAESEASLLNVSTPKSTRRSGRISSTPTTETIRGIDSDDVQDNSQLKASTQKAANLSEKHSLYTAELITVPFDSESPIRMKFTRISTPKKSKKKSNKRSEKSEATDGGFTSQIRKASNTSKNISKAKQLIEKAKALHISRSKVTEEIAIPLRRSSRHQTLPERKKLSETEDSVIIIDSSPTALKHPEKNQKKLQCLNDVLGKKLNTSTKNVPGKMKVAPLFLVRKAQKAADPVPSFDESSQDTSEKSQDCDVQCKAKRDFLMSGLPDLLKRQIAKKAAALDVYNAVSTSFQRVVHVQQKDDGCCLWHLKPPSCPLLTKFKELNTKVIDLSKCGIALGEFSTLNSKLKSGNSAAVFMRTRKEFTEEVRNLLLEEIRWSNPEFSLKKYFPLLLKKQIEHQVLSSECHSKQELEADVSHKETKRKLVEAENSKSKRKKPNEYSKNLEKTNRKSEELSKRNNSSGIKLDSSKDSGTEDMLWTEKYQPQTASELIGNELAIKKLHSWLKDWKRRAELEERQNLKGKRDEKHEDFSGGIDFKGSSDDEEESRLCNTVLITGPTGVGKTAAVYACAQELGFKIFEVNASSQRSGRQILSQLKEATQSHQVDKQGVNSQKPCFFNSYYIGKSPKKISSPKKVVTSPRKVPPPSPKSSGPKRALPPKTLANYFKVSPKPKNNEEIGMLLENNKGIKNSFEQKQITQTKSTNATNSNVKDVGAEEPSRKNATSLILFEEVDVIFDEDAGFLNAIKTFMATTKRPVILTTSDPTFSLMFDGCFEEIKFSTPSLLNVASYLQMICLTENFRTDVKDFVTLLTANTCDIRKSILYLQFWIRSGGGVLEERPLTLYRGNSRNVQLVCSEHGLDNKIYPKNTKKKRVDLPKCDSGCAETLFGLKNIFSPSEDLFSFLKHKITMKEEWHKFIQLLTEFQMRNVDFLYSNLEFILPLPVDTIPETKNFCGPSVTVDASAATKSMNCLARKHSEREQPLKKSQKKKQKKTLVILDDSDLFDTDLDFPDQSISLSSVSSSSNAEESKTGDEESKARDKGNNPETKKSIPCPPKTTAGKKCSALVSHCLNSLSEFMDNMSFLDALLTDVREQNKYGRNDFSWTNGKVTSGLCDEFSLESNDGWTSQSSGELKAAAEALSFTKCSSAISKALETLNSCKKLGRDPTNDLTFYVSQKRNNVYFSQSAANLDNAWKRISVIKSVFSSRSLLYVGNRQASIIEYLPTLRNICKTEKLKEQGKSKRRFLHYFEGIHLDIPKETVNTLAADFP
Summary of the method: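 Compounds reducing 5-fluorouridine-driven ELG1-luciferase signal in HEK293T cells were scored; exposure lasted 16 hr at 37 °C with luminescence detected via ONE-Glo.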

[11] = molecular target: Peptidyl-prolyl cis-trans isomerase NIMA-interacting 1 (Homo sapiens) (UniProt Q13526); assay: qHTS Validation Assay to Find Inhibitors of Pin1 (AID 504536; active = well fitted inhibition curve with a large enough effect in the polarisation, with a control signal flat, not every such curve was filed as active; inconclusive = small, poorly fitted or top-dose-only effect, or effect the other way; the % refers to the polarisation;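 note: 0% = full Pin1 enzyme wells and -100% = no-enzyme wells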); details: Pin1 fluorescence polarization peptide binding assay; series mostly up to 57.5 µM
Sequence of UniProt Q13526 (Q13526 whole entry, looked up): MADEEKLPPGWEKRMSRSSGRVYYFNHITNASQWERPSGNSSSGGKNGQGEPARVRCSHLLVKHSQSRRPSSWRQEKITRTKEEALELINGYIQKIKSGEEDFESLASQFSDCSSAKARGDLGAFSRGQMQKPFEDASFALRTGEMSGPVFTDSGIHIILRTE
Summary of the method: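 Fluorescence polarization competition: compounds (titration) displace HiFluor-488-labeled Pin1-1b peptide from Pin1 (0.3 uM final) in pH 7.5 HEPES buffer with DTT, 10 min at room temperature; %Activity normalized to no-enzyme wells, curves fitted.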

[12] = molecular target: Glucocorticoid receptor (Homo sapiens) (UniProt P04150); assay: qHTS assay for small molecule antagonists of glucocorticoid receptor signaling (AID 588533; active = well fitted inhibition curve with a large enough effect in the signal ratio, with a control signal flat, not every such curve was filed as active; inconclusive = small, poorly fitted or top-dose-only effect, or effect the other way, or a change in a side signal; the % refers to the signal ratio;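 note: cells stimulated with 2 nM dexamethasone as agonist; potency is the fitted concentration of half-maximal effect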); details: HeLa MMTV-bla, GRE beta-lactamase ratio, antagonist mode, 18 h; activity change, negative = inhibition: at 76.8 µM (top of the series)
[13] = molecular target: Peroxisome proliferator-activated receptor delta (Homo sapiens) (UniProt Q03181); assay: qHTS assay for small molecule agonists of peroxisome proliferator-activated receptor delta signaling (AID 588534; calls by dose curve;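 note: 0% = DMSO basal wells and 100% = positive control agonist at 10 µM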); details: HEK293T PPARdelta-UAS-bla, beta-lactamase ratio, 18 h; activation: at 76.7 µM (top of the series)
Sequence of UniProt Q03181 (Q03181 whole entry, looked up): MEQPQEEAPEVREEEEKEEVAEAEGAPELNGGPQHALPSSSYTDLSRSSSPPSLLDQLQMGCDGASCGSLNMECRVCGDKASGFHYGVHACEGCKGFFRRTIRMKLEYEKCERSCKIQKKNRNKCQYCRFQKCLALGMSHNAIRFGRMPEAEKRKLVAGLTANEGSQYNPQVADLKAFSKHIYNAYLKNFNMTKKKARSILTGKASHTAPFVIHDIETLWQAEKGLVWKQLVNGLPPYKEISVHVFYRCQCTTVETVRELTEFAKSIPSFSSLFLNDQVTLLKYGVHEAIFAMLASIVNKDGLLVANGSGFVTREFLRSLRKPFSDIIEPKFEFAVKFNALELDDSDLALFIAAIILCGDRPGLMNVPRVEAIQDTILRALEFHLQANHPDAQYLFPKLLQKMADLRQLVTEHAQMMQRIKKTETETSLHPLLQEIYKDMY
Summary of the method: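 EC50 and efficacy values derive from Hill fits of a concentration series in a beta-lactamase reporter cell assay. Exposure is 18 hrs at 37 C, with CCF4 fluorescence as the readout.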

[14] = molecular target: Peroxisome proliferator-activated receptor delta (Homo sapiens) (UniProt Q03181); assay: qHTS assay for small molecule antagonists of peroxisome proliferator-activated receptor delta signaling (AID 588535; active = well fitted inhibition curve with a large enough effect in the signal ratio, with a control signal flat, not every such curve was filed as active; inconclusive = small, poorly fitted or top-dose-only effect, or effect the other way, or a change in a side signal; inactive = no such curve, though single readings can be large or run the other way; the % refers to the signal ratio); details: HEK293T PPARd-UAS-bla, beta-lactamase FRET ratio, 18 h; activity change, negative = inhibition: at 76.7 µM (top of the series)
Summary of the method: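 Compounds tested in titration on PPAR-delta-UAS-bla HEK293T cells grown in charcoal/dextran-stripped serum (2%); beta-lactamase activity read via CCF4 emission at 460 and 530 nm.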

[15] = molecular target: Peroxisome proliferator-activated receptor gamma (Homo sapiens) (UniProt P37231); assay: qHTS assay for small molecule antagonists of peroxisome proliferator-activated receptor gamma signaling (AID 588537; active = well fitted inhibition curve with a large enough effect in the signal ratio, with a control signal flat, not every such curve was filed as active; inconclusive = small, poorly fitted or top-dose-only effect, or effect the other way, or a change in a side signal; the % refers to the signal ratio;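 note: reporter cells co-stimulated with 50 nM rosiglitazone agonist during compound treatment; potency is the fitted concentration of half-maximal effect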); details: HEK293 PPARg-UAS-bla, beta-lactamase ratio, antagonist mode; activity, negative = inhibition: at 76.8 µM (top of the series)
Summary of the method: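 HEK293 cells, PPAR-gamma-UAS-bla, 3000/well. Pre-incubation 6-6.5 h, 37 C. Compound titration with rosiglitazone 50 nM final, 16 h. CCF4 dye, 2 h RT, dual-emission fluorescence.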

[16] = qHTS assay for small molecule agonists of the antioxidant response element (ARE) signaling pathway (AID 651741; active = well fitted activation curve with a large enough effect in the signal ratio; inconclusive = small, poorly fitted or top-dose-only effect, or effect the other way, or a change in a side signal; the % refers to the signal ratio; note: % of control where 0% means no effect); details: HepG2 ARE-bla reporter, beta-lactamase FRET ratio, 16 h; activation: at 96 µM (top of the series)
Summary of the method: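 Beta-lactamase reporter expression driven by the antioxidant response element in HepG2 cells was detected by fluorescence with LiveBLAzer B/G FRET substrate (2 h, room temperature) following 16 h compound treatment at 37 C.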

[17] = molecular target: Atrial natriuretic peptide receptor 1 (Homo sapiens) (UniProt P16066); assay: Natriuretic polypeptide receptor (hNpr1) antagonism - Pilot screen (AID 1347049; calls by dose curve;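 note: HEK293 cells with hNpr1 and GloSensor cGMP luciferase stimulated by 0.1 nM hNppA; agonist-evoked cGMP luminescence read 20 min after hNppA addition; potency is the fitted concentration of half-maximal effect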); details: hNpr1 cells, antagonist mode cGMP read-out; series mostly up to 57.5 µM
Sequence of UniProt P16066 (P16066 whole entry, looked up): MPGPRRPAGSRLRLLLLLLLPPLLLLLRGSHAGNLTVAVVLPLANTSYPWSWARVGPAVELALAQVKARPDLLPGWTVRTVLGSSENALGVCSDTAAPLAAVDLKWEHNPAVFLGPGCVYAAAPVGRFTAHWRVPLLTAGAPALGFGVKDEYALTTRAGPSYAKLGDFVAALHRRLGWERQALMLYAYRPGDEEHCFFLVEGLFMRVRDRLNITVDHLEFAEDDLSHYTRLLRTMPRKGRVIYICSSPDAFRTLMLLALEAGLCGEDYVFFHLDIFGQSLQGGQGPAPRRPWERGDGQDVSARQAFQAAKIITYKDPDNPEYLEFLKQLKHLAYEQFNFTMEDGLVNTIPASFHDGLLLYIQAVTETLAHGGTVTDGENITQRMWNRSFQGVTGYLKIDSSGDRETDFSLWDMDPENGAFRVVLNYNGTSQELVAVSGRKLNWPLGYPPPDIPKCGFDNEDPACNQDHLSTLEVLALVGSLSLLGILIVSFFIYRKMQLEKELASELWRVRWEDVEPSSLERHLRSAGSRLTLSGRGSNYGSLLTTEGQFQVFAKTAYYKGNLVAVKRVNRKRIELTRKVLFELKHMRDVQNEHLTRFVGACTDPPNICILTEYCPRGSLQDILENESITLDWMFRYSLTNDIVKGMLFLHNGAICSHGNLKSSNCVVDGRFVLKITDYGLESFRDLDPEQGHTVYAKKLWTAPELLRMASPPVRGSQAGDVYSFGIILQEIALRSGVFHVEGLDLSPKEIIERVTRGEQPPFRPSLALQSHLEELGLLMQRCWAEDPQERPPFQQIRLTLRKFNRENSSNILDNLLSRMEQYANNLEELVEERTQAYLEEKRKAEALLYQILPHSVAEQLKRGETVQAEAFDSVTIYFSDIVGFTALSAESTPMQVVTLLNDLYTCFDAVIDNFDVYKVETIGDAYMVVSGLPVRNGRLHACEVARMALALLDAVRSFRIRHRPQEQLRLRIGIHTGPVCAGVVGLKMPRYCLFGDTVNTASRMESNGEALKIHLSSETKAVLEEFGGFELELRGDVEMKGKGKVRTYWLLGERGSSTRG
Summary of the method: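 Cells expressing receptor plus cGMP biosensor are seeded and incubated overnight at 37C, then loaded with GloSensor reagent (2% final) at room temperature for 2 h. Library compounds go on for 30 min. A pre-read precedes agonist (hNppA, 0.1 nM final) and a 20-min readout.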

[18] = NS1 protein of Zika virus - qHTS assay to identify small molecule inhibitors in human HEK 293 cells (AID 1347053); details: HEK293 ZIKV MR766 infection, NS1 TR-FRET, 24 h; series mostly up to 46.1 µM;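 note: plate controls were infected untreated cells for no effect and uninfected cells for full effect; nearly all actives have a fitted effect of over 55% in size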
Summary of the method: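 Read-out is a two-antibody TR-FRET for ZIKV NS1, normalized between uninfected cells and infected cells. Compound added 1 h before MR766 infection at MOI 0.5; human HEK 293 cells incubated 24 h, 37 C.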

[19] = molecular target: Tyrosine-protein phosphatase non-receptor type substrate 1 (Homo sapiens) + Leukocyte surface antigen CD47 (Homo sapiens) (UniProt P78324+Q08722); assay: CD47-SIRPalpha protein protein interaction - Alpha assay qHTS validation (AID 1347059); details: AlphaScreen CD47-His/biotin-SIRPalpha binding, LOPAC; series mostly up to 38.3 µM;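 note: bead proximity luminescence from CD47 binding SIRPalpha after compound preincubation with SIRPalpha; % is set by controls: 0 for no effect and ±100 for the full control effect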
Summary of the method: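 In PBS (pH 7.4) with 0.05% IGEPAL CA-630, compound is preincubated with biotin-Avi-SIRPalpha ectodomain before His-CD47 ectodomain and affinity beads are added. Light-protected room-temperature incubations; AlphaScreen readout.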

[20] = qHTS of pediatric cancer cell lines to identify multiple opportunities for drug repurposing: Primary screen for BT-37 cells (AID 1347094); details: BT-37 viability, CellTiter-Glo luminescence, 48 h; series mostly up to 57.3 µM;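 note: plate controls were DMSO for no effect and bortezomib for full effect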
Summary of the method: (§1)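 CRCs from 8- or 11-point titrations (lowest final 0.59 nM NPC, 0.78 nM MIPE). Cell viability: CellTiter-Glo after 48 h incubation, 15 min room-temperature development, luminescence imaging.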

[21] = qHTS of pediatric cancer cell lines to identify multiple opportunities for drug repurposing: Primary screen for Saos-2 cells (AID 1347097); details: Saos-2 viability, CellTiter-Glo ATP luminescence, 48 h; series mostly up to 46 µM; note: % is set by controls: 0 for no effect and ±100 for the full control effect; nearly all actives have a fitted effect of over 40% in size
Summary of the method: as §1

[22] = qHTS of pediatric cancer cell lines to identify multiple opportunities for drug repurposing: Primary screen for OHS-50 cells (AID 1347103); details: OHS-50 osteosarcoma viability, CellTiter-Glo luminescence, 48 h; series mostly up to 57.3 µM;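 note: plate controls were DMSO neutral control for no effect and bortezomib positive control for full effect; nearly all actives have a fitted effect of over 40% in size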
Summary of the method: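 Cells (500-1,000/well) rested 5 h, then received compounds for 48 h; metabolically active cells were measured by CellTiter-Glo luminescence. Final concentrations spanned up to 46 µM (MIPE, 11-point) or 0.59 nM-46 µM (NPC, 8-point) in primary screens, 11-point in follow-ups.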

[23] = qHTS of pediatric cancer cell lines to identify multiple opportunities for drug repurposing: Primary screen for MG 63 (6-TG R) cells (AID 1347105); details: MG 63 (6-TG R) viability, CellTiter-Glo, 48 h; activity change, negative = cytotoxic: at 46 µM (top of the series); note: % is set by controls: 0 for no effect and ±100 for the full control effect; nearly all actives have a fitted effect of over 50% in size
Summary of the method: as §1

[24] = molecular target: N-terminal Xaa-Pro-Lys N-methyltransferase 1 (Homo sapiens) (UniProt Q9BV86); assay: qHTS Assay for Inhibitors of N-terminal methyltransferase 1 (NTMT1): LOPAC validation of the NTMT1 SAHH-coupled ThioGlo3 Assay (AID 1347143); details: recombinant NTMT1, SAHH-coupled ThioGlo3 fluorescence; series mostly up to 114 µM;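 note: SAH from peptide methylation measured as thiol fluorescence via SAHH coupling and ThioGlo3; potency is the fitted concentration of half-maximal effect; nearly all actives have a fitted effect of over 70% in size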
Sequence of UniProt Q9BV86 (Q9BV86 whole entry, looked up): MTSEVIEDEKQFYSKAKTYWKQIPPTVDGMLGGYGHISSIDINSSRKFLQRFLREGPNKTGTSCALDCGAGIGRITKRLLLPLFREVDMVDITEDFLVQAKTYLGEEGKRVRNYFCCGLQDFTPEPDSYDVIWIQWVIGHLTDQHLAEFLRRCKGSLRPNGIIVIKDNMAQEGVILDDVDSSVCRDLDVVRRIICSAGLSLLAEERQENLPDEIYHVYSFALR
Summary of the method: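 In this qHTS pilot against the LOPAC set, 125nM NTMT1 met compounds tested at multiple concentrations, and fluorescence was normalized to background.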
Tags give direction and shape of the fitted curve or compound fluorescence and quenching.

COc1ccc(CN(CCN(C)C)c2ccccn2)cc1
inconclusive: activity change, negative = inhibition ([1]; at 17.2 µM (top of the series)) 55.5% [activator] and 27% [activator] | activity change, negative = inhibition ([1]; at 38 µM (top of the series)) 65.3% [activator] | Potency [2] 15.8 µM [decreasing] | Potency [3] 12 µM [activator, partial curve] | Potency [7] 39.8 µM [cytotoxic, partial curve, poor fit] | Potency [8] 11.2 µM [inhibitor, partial curve, poor fit] | Potency [9] 11.2 µM [inhibitor, partial curve] | Potency [10] 3.66 µM [activator, partial curve, poor fit] | Potency [12] 39.8 µM [activator, partial curve, poor fit] | activation [13] -15.7% | Potency [15] 50.1 µM [fluorescent, side channel, single point] | activation [16] -3.64% | Potency [17] 1.9 µM [inhibitor, partial curve] | Potency [24] 56.2 µM [inhibitor, partial curve]
inactive: Potency [4] | caspase-3 activation [5] 1.3% | Potency [6] | Potency [11] | Potency [14] | Potency [18] | Potency [19] | Potency [20] | Potency [21] | Potency [22] | Potency [23]
